Test results: patent US20070219159A1, “CYCLODEXTRIN COMPOSITIONS AND METHODS OF TREATING VIRAL INFECTIONS” (priority 2002, published 2007)

Test system: HSV-1 strain KOS1.1
Assay: CPE reduction assay in Vero cells, HSV-1
Assay type: cell-based
Settings: HSV-1 KOS1.1, MOI 2; β-CD 4.5 and 4.95 mg/ml

Compound: OC[C@H]1O[C@@H]2O[C@H]3[C@H](O)[C@@H](O)[C@@H](O[C@H]4[C@H](O)[C@@H](O)[C@@H](O[C@H]5[C@H](O)[C@@H](O)[C@@H](O[C@H]6[C@H](O)[C@@H](O)[C@@H](O[C@H]7[C@H](O)[C@@H](O)[C@@H](O[C@H]8[C@H](O)[C@@H](O)[C@@H](O[C@H]1[C@H](O)[C@H]2O)O[C@@H]8CO)O[C@@H]7CO)O[C@@H]6CO)O[C@@H]5CO)O[C@@H]4CO)O[C@@H]3CO [BCD, β-cyclodextrin]
- antiviral protection of Vero cells, sub-optimal concentrations alone: marginal antiviral protection
